Experimental data reported in PubChem BioAssay AID1508623 (National Center for Advancing Translational Sciences (NCATS), 2021).
In all, about 48,000 compounds went through this assay and about 450 (0.94%) were called active. Roughly 19% stayed inconclusive and do not appear here. Calls come from the whole dose curve; as a rule, active = well fitted inhibition curve with a large enough effect; inconclusive = small, poorly fitted or top-dose-only effect; inactive = no such curve, though single readings can be large or run the other way. Some of the results follow.

Assay: Primary qHTS for Identification of Small Molecule Inhibitors of Huntingtin Promoter Activity; note: nearly all actives have a fitted effect of over 50% in size
Conditions: HEK293 HTT promoter firefly luciferase reporter (activity 0% = vehicle and -100% = no light), 24 h; series mostly up to 57.5 µM; activity change, negative = inhibition: at the top concentration
Procedure, shortened: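 Firefly luciferase readout (Dual-Glo, 10 min RT) after 24 h, 37 °C compound exposure (final up to 57.5 uM) of HEK293 reporter cells cultured 24 h beforehand; PTC124 at 50 uM final as control inhibitor; activity scaled vehicle 0%, zero RLU -100%.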
Potency is the fitted concentration of half-maximal effect.

Compound | activity change, negative = inhibition | Potency
CCN(CC)c1ccc(NC(=O)Cn2c(C)c3cnn(-c4ccccc4)c(=O)c3c2C)c(C)c1 | inactive: -13.9% | –
Cc1cc(Cl)ccc1NC(=O)CCS(=O)(=O)c1cc2c(cc1C)NC(=O)CO2 | inactive: -21.1% | –
COC(=O)c1c(-c2cccs2)csc1NC(=O)c1cc(OC)cc(OC)c1 | inactive: 29.8% | –
Cc1ccc(CNC(=O)C(CC(C)C)N2Cc3ccccc3C2=O)cc1 (stereo not drawn) | inactive: -29.2% | –
Cc1cc(C)cc(NC(=O)C(Cc2ccccc2)N2Cc3ccccc3C2=O)c1 (stereo not drawn) | inactive: -19.4% | –
Clc1cccc(-n2ncc3c(NCCCc4ccccc4)ncnc32)c1 | inactive: -23.7% | –
CCN(C(=O)Cn1nc(Cc2cccnc2)c2ccccc2c1=O)c1cc(C)ccc1C | inactive: -21.7% | –
Cc1ccccc1C(=O)Nc1nnc(S(=O)(=O)N2CCCc3ccccc32)s1 | inactive: -20% | –
Cc1ccc(-n2c(=O)c3sccc3n(Cc3cc(=O)n4ccccc4n3)c2=O)cc1 | inactive: -9.4% | –
COc1ccc(C(=O)N2CCC(C(=O)Nc3ccc(OC)cc3OC)CC2)cc1 | inactive: -21.4% | –
Cc1onc(-c2ccccc2)c1C(=O)N[C@@H]1C(=O)N2[C@@H](C(=O)O)C(C)(C)S[C@@H]12 | inactive: 5.4% | –
Cc1cccc(-c2cc(NC(=O)COc3ccccc3F)n(-c3ccccc3)n2)c1 | inactive: 14.2% | –
Cc1nnsc1C(=O)Oc1ccccc1Cl | inactive: 3.16% | –
Cc1ccc(-c2cn3c4c(=O)n(C)c(=O)n(C)c4nc3n2-c2cccc(Cl)c2)cc1 | inactive: -11.1% | –
CSc1ccccc1NC(=O)CCS(=O)(=O)c1nc(-c2cccs2)cc(C(F)(F)F)n1 | inactive: -5.6% | –
CCn1c(C(=O)Nc2cc(C)cc(C)c2)cc2sc(Cl)cc21 | inactive: -21.7% | –
COc1ccc(C(=O)N=c2sc3cc(Cl)ccc3n2C)cc1 | inactive: 11.2% | –
CCN(CC)CCOC(=O)c1ccc(NC(=O)CCn2c(=O)oc3ccccc32)cc1 | inactive: -0.0139% | –
N#Cc1ccccc1NC(=O)C(=O)NCC(c1cccnc1)N1CCc2ccccc2C1 (stereo not drawn) | inactive: 0.807% | –
CN1[C@@H]2CC[C@H]1CC(OC(=O)c1c[nH]c3ccccc13)C2 (stereo partly drawn) | inactive: -4.77% | –
CCCCN(C)c1ncnc2c1cnn2-c1cccc(Cl)c1 | inactive: 16.4% | –
CCC(=O)N1CCc2cc(S(=O)(=O)NCCC(=O)Nc3cccc(C)c3C)ccc21 | inactive: -15.4% | –
Cc1cc(SCC(=O)NCc2ccccc2)nc(=O)[nH]1 | inactive: -8.92% | –
COc1cccc(CNc2ccc3c(c2)ncn3C)c1OC | inactive: 9.78% | –
COc1ccc(OC)c(CCNC(=O)C(C)n2nc(C)c3c(C)n(-c4ccc(C)cc4)nc3c2=O)c1 (stereo not drawn) | – | active: 1580 nM

Compound | activity change, negative = inhibition | Potency
O=C(NCc1ccccc1Br)c1ccc(-n2cnc3cccnc32)cc1 | inactive: -22.8% | –
COc1ccc(N(CC(=O)Nc2ccc(Cl)cc2C)S(=O)(=O)c2ccccc2)c(OC)c1 | inactive: -12.8% | –
COc1cc(-c2nnc(SCC(=O)N3CCCc4ccccc43)o2)cc(OC)c1OC | inactive: -9.44% | –
CCCN(C(=O)CCn1cnc2onc(-c3ccc(F)cc3)c2c1=O)c1ccccc1C | inactive: -25.1% | –
CCOC(=O)c1c(-c2ccccc2)csc1NC(=O)c1cc(-c2cccc(OC)c2)on1 | inactive: -11.2% | –
Cc1ccc(Cl)cc1N1CCN(C(=O)Cn2nc(C)n3c(cc4sccc43)c2=O)CC1 | inactive: -10.4% | –
Cc1cc(C)cc(C(=O)Nc2c3c(nn2-c2ccccc2C)CS(=O)(=O)C3)c1 | inactive: -7.71% | –
O=C(Cn1nc2c(cc1=O)CCCC2)NCc1ccccc1Cl | inactive: 49.7% | –
Cc1ccc(C(=O)Nc2nnc(SCc3cc(=O)n4ccc(C)cc4n3)s2)cc1 | inactive: 22.4% | –
Cc1cc(C)cc(NC(=O)Cn2nnc(C(=O)NCc3ccco3)c2N)c1 | inactive: -19% | –
O=C(CN1C(=O)COc2ccc(S(=O)(=O)N3CCCCCC3)cc21)N1CCN(c2ccccc2)CC1 | inactive: -13.4% | –
COCCNC(=O)Cn1c(=O)n(-c2ccc(C)c(C)c2)c(=O)c2c3c(sc21)CCCCC3 | inactive: -10.3% | –
COc1ccc(NC(=O)CN2CCN(S(=O)(=O)c3ccc(Br)cc3)CC2)cc1 | inactive: -36.6% | –
COc1ccc(Cl)cc1NC(=O)C(C)N1Cc2ccccc2C1=O (stereo not drawn) | inactive: -17.9% | –
CCOc1cc(CNC(=O)C(NS(=O)(=O)c2cccs2)C(C)C)cc(OCC)c1OCC (stereo not drawn) | inactive: -13.8% | –
O=C(Cn1c(SCc2cccc(F)c2)nc2ccncc21)Nc1ccc(Cl)cc1F | inactive: -18.6% | –
COc1ccc(NCc2cccn2-c2nnc(N3CCOCC3)s2)c(OC)c1 | inactive: 5.65% | –
COc1ccc(C(=O)Nc2ccc3nc(N4CCCCC4)cc(C)c3c2)c(OC)c1 | inactive: 1.07% | –
Cc1cn2c(=O)cc(COc3cccc(NC(=O)c4cccc(F)c4)c3)nc2s1 | inactive: -4.96% | –
COc1ccc(N2CCN(S(=O)(=O)CCNC(=O)Cc3ccc(-c4ccccc4)cc3)CC2)cc1 | inactive: -27.8% | –
CCOc1ccccc1CNC(=O)c1cccc(NC(=O)c2nsc3ccccc23)c1 | inactive: 16.1% | –
Cc1ccc(S(=O)(=O)c2cnc(SCC(=O)Nc3cccc(Cl)c3)nc2N)cc1C | inactive: -13.4% | –
CCN(CC)C(=O)Cn1cc(SCC(=O)Nc2cccc(F)c2)c2ccccc21 | inactive: -10.3% | –
COc1ccc(C(CC(=O)O)NC(=O)c2cc3ccccc3oc2=O)cc1OC (stereo not drawn) | inactive: -1.85% | –
Cc1cccc(Cn2c(=O)n(Cc3ccc(C(=O)NC4CCN(Cc5ccccc5)CC4)cc3)c(=O)c3ccccc32)c1 | inactive: -11.5% | –

Compound | activity change, negative = inhibition | Potency
Oc1ccc(Nc2nc3ccccc3n3cnnc23)cc1 | inactive: 21.3% | –
CCOC(=O)c1cnc2c(C)cc(C)cc2c1Nc1cccc(C(=O)O)c1 | inactive: -26.6% | –
CCOCCCNC(=O)CN1C(=O)COc2ccc(S(=O)(=O)N3CCCCCC3)cc21 | inactive: -7.76% | –
O=C(Nc1cccc2cccnc12)c1ccccc1[N+](=O)[O-] | inactive: 23.5% | –
CC(=O)c1ccc(N2CCN(c3ccc(NC(=O)c4cccs4)cc3C(=O)O)CC2)cc1 | inactive: -9.4% | –
Cc1ccc(-n2ncc(C(=O)NCCCN3CCCCC3)c2C2CCN(C(=O)OC(C)(C)C)CC2)c(C)c1 | inactive: -16.2% | –
Cc1ccc(NC(=O)CSc2nnc3nc(C)cc(C)n23)cc1 | inactive: -18.5% | –
CCc1cccc(C)c1NC(=O)CCCn1c(=O)c2cccn2c2cccnc21 | inactive: 4.64% | –
CCOC(=O)c1ccccc1NC(=O)NC(C)c1c(-n2cccc2)sc(C)c1C (stereo not drawn) | inactive: -25.6% | –
Cc1ccc(C)c(NC(=O)CN2C(=O)c3cccc4cccc2c34)c1 | inactive: -17.2% | –
O=c1c2ccccc2n2c(-c3ccccc3O)nnc2n1Cc1ccc(F)cc1 | inactive: -16.7% | –
Cc1cccc(Cn2ccn(Cc3ccc(Cl)cc3)c(=O)c2=O)c1 | inactive: 1.58% | –
CCN(CC)C(=O)c1sc(NC(=O)c2nc3ncccn3n2)c(C(=O)OC)c1C | inactive: -18% | –
CCCCCC(=O)N1c2ccccc2C(C)(c2ccccc2)CC1(C)C (stereo not drawn) | inactive: -15.6% | –
Nc1[nH]nc2nnc(-c3c(-c4ccccc4)nn4ccccc34)cc12 | inactive: -2.57% | –
O=C(c1ccccc1Br)N(Cc1ccco1)C1CCS(=O)(=O)C1 (stereo not drawn) | inactive: -0.483% | –
CCC(Sc1nc2c(sc3ccccc32)c(=O)n1CCc1ccccc1)C(=O)N(CC)CC (stereo not drawn) | inactive: -2.02% | –
COc1cccc(CCNC(=O)Cn2c(-c3cccs3)cc3ccccc32)c1 | inactive: -26.6% | –
COc1ccc(Cn2c(C(=O)O)c(CNCC(C)c3ccccc3)c3ccc(OC)cc32)cc1 (stereo not drawn) | inactive: -31.7% | –
COc1ccc(NC(=O)CN2C(=O)C(c3ccc(C(C)(C)C)cc3)=NC2(C)C)cc1Cl | inactive: 4.88% | –
COc1ccccc1N1CCN(C(=O)C2CCN(S(=O)(=O)c3c(C)noc3/C=C/c3ccc(C)cc3)CC2)CC1 | inactive: -13.4% | –
CCCCn1c(SCC(=O)Nc2cccc(OC)c2)nc2c(sc3ccccc32)c1=O | inactive: -12.4% | –
Cc1cccc(Cc2cnc(NC(=O)C3Cc4ccc(C)cc4C(=O)O3)s2)c1 (stereo not drawn) | inactive: -4.63% | –
Cc1cc(C)cc(-n2c(SCC(=O)NCc3ccco3)nc3c([nH]c4ccccc43)c2=O)c1 | inactive: -12.4% | –
CC(C)NC(=O)CCn1c(SCc2c(F)cccc2Cl)nc2c(sc3ccccc32)c1=O | inactive: 1.09% | –

Compound | activity change, negative = inhibition | Potency
COc1ccc(NC(=O)NCCc2c(C)nn(C)c2C)c(OC)c1 | inactive: -0.627% | –
Cc1nnc2c(N3CCN(c4ccccc4F)CC3)nc3ccccc3n12 | inactive: -7.84% | –
Cc1cc(-n2c(SCC(=O)NCc3ccccc3)nc3ccsc3c2=O)ccc1Cl | inactive: -14.8% | –
Cc1ccc(-n2nnc(-c3nsc(NC(=O)c4ccccc4)n3)c2C)cc1 | inactive: 4.96% | –
Cc1ccc(-n2nc3ccc(NC(=O)c4oc5ccc(C)cc5c4C)cc3n2)cc1 | inactive: 6.94% | –
CCOc1ccc(OCC(=O)NCCS(=O)(=O)N2CCN(c3ccc(F)cc3)CC2)cc1 | inactive: -27.5% | –
CCOC(=O)n1ccn(C)c1=S | inactive: -2.64% | –
CCCOc1ccccc1C(=O)N1CCCCC1CCN1CCOCC1 (stereo not drawn) | inactive: -4.79% | –
CCN(C(=O)Cn1ncc2c(=O)oc3ccc(C)cc3c21)c1cc(OC)ccc1OC | inactive: 0.526% | –
CC1CCc2noc(NC(=O)c3ccccc3[N+](=O)[O-])c2C1 (stereo not drawn) | inactive: -25.3% | –
CCOC(=O)C1CCCN(S(=O)(=O)c2ccc(N3CCCCS3(=O)=O)cc2)C1 (stereo not drawn) | inactive: -31.7% | –
Cc1cc(C(F)F)n2nc(C(=O)Nc3cc(Cl)ccc3C)nc2n1 | inactive: -6.1% | –
CN1CCN(C(=O)c2ccc3c(c2)N(Cc2cccc(Cl)c2)C(=O)c2ccccc2S3(=O)=O)CC1 | inactive: -25.8% | –
COc1ccccc1CNC(=O)C1CCN(S(=O)(=O)c2c(C)noc2/C=C/c2c(C)cc(C)cc2C)CC1 | inactive: -25.6% | –
COc1cc(O)c2c(c1)C(=O)c1cc(C)cc(O)c1C2=O | inactive: 5.41% [at 25.2 µM] | –
COc1cccc(CNC(=O)CSc2ncc3c(n2)-c2cc(Cl)ccc2N(C)S3(=O)=O)c1 | inactive: -7.89% | –
Cc1coc2c(C)c3oc(=O)c(CC(=O)NCc4ccccc4)c(C)c3cc12 | inactive: -11.2% | –
Cc1c(Cl)cccc1NC(=O)CN1C(=O)COc2ccc(S(=O)(=O)N3CCCCCC3)cc21 | inactive: -7.32% | –
Cc1ccc(Cl)cc1-n1c(=O)c2sc3ccccc3c2n(CC(=O)NC2CCCCC2)c1=O | inactive: -15.4% | –
Cc1cccc(C)c1NC(=O)c1nc(S(C)(=O)=O)ncc1N(Cc1ccc(F)cc1)Cc1ccco1 | inactive: -36.5% | –
CCOC(=O)c1cnc2c(C)cc(C)cc2c1NCCc1ccc(OC)c(OC)c1 | inactive: -3.84% | –
Cc1ccc2c(CC(=O)NCc3ccccc3)coc2c1C | inactive: -13.8% | –
O=c1c2sc3ccccc3c2n(Cc2ccccc2Cl)c(=O)n1Cc1ccccc1 | inactive: -5.36% | –
